Test results published in the supplement of paper PMC12217912.
The list shows a part of the results. The full chains were built here from the parent and the listed change. Values near 0.05 are background.

B1: TEV protease; numbered along this chain (parent)
chain: MGESLFKGPRDYNPISSSICHLTNESDGHTTSLYGIGFGPFIITNKHLFRRNNGTLVVQSLHGVFKVKDTTTLQQHLVDGRDMIIIRMPKDFPPFPQKLKFREPQREERICLVTTNFQTKSMSSMVSDTSCTFPSGDGIFWKHWIQTKDGQCGSPLVSTRDGFIVGIHSASNFTNTNNYFTSVPKNFMELLTNQEAQQWVSGWRLNADSVLWGGHKVFMVKPEEPFQPVKEATQL

Variants of: B1
Experiment: raw area under fraction-flipped curve 0-4 h after induction (AUC4h, not background-subtracted), DNA-recorder readout of cleavage of the substrate (dimensionless); higher = more cleavage of the substrate by the protease variant
Settings: temperature: 34 °C; time window: 0-4 h after rhamnose induction
Protocol: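 In vivo DNA recorder in E. coli TOP10(DE3) ΔrhaA at 34 °C. Each TEVp single-site mutant (parent TEVp 0) is paired with a single-site variant of the 7-mer TEVs (canonical ENLYFQ|S). The substrate sits between flexible linkers in a Bxb1-sfGFP-TEVs-SsrA fusion, so cleavage stabilises Bxb1 and speeds flipping of a recombination array, read by NGS. The value is the raw area under the fraction-flipped curve over 0-4 h after rhamnose induction (AUC4h), with ≥20 reads per time point. It is not background-subtracted; inactive controls average about 0.047.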
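Note: Bxb1 expression induced with 0.2% (w/v) L-rhamnose at OD600 near 0.5, cultures sampled hourly, flipped fraction per protease–substrate barcode pair counted by paired-end Illumina sequencing.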

Variant	area with substrate ENLYDQS	area with substrate ENLYEQS	area with substrate ENLYGQS	area with substrate ENLYHQS	area with substrate ENLYNQS	area with substrate ENLYPQS	area with substrate ENLYQQS	area with substrate ENLYTQS	area with substrate ENLYWQS	area with substrate ENLYYQS	area with substrate ENLYIQS	area with substrate ENLYKQS	area with substrate ENLYRQS	area with substrate ENLYSQS	area with substrate ENLYMQS	area with substrate ENLYVQS	area with substrate ENLYLQS
MGESLFKGPRDYNPISSSICHLTNESDGHTTSLYGIGFGPFIITNKHLFRRNNGTLVVQSLHGVFKVKDTTTLQQHLVDGRDMIIIRMPKDFPPFPQKLKFREPQREERICLVTTNFQTKSMSSMVSDTSCTFPSGDGIFWKHWIQTKDGQCGSPLVSTRDGFIVGIHSASNCTNTNNYFTSVPKNFMELLTNQEAQQWVSGWRLNADSVLWGGHKVFMVKPEEPFQPVKEATQL [F173C]	0.0665	0.0704	0.0622	0.0537	0.0507	0.061	0.0613	0.0803	0.0544	0.0721	–	–	–	–	–	–	–
MGESLFKGPRDYNPISSSICHLTNESDGHTTSLYGIGFGPFIITNKHLFRRNNGTLVVQSLHGVFKVKDTTTLQQHLVDGRDMIIIRMPKDFPPFPQKLKFREPQREERICLVTTNFQTKSMSSMVSDTSCTFPSGDGIFWKHWIQTKDGQCGSPLVSTRDGFIVGIHSASNYTNTNNYFTSVPKNFMELLTNQEAQQWVSGWRLNADSVLWGGHKVFMVKPEEPFQPVKEATQL [F173Y]	0.0609	0.0532	0.0708	0.0546	0.0698	0.0957	0.0873	–	0.0817	0.024	0.0982	0.0324	0.0484	0.0622	–	–	–
MGESLFKGPRDYNPISSSICHLTNESDGHTTSLYGIGFGPFIITNKHLFRRNNGTLVVQSLHGVFKVKDTTTLQQHLVDGRDMIIIRMPKDFPPFPQKLKFREPQREERICLVTTNFQTKSMSSMVSDTSCTFPSGDGIFWKHWIQTKDGQCGSPLVSSRDGFIVGIHSASNFTNTNNYFTSVPKNFMELLTNQEAQQWVSGWRLNADSVLWGGHKVFMVKPEEPFQPVKEATQL [T159S]	0.0627	0.0587	0.057	–	0.072	0.0841	–	–	0.0633	–	0.123	–	–	–	0.0922	0.129	–
MGESLFKGPRDYNPISSSICHLTNESDGHTTSLYGIGFGPFIITNKHLFRRNNGTLVVQSLHGVFKVKDTTTLQQHLVDGRDMIIIRMPKDFPPFPQKLKFREPQREERICLVTTNFQTKSMSSMVSDTSCTFPSGDGIFWKHWIQTKDGQCGSPLVSTRDGFIVGIHSHSNFTNTNNYFTSVPKNFMELLTNQEAQQWVSGWRLNADSVLWGGHKVFMVKPEEPFQPVKEATQL [A170H]	0.0872	0.0681	0.0667	0.0621	0.0693	0.0537	–	–	–	0.0507	–	–	–	–	0.064	–	–
MGESLFKGPRDYNPISSSICHLTNESDGHTTSLYGIGFGPFIITNKHLFRRNNGTLVVQSLHGVFKVKDTTTLQQHLVDGRDMIIIRMPKDFPPFPQKLKFREPQREERICLVTTNFQTKSMSSMVSDTSCTFPSGDGIFWKHWIQTKDGQCGSPLVSTRDGFIVGIHSASNFTNTNNYFTSVPKNFMELLTNQEAAQWVSGWRLNADSVLWGGHKVFMVKPEEPFQPVKEATQL [Q197A]	0.0709	0.0683	0.0652	–	–	–	0.0805	0.0751	0.0691	–	0.0838	–	–	–	0.104	0.111	–
MGESLFKGPRDYNPISSSICHLTNESDGHTTSLYGIGFGPFIITNKHLFRRNNGTLVVQSLHGVFKVKDTTTLQQHLVDGRDMIIIRMPKDFPPFPQKLKFREPQREERICLVTTNFQTKSMSSMVSDTSCTFPSGDGIFWKHWIQTKDGQCGSPLVSTRDGFIVGIHSASNFTNTNNYFTSVPKNFMELLTNQEAQQWVSPWRLNADSVLWGGHKVFMVKPEEPFQPVKEATQL [G202P]	0.0671	0.0588	0.057	0.0545	0.0493	–	0.0582	0.0709	0.0236	–	–	0.0603	0.0533	0.0517	0.0553	–	–
MGESLFKGPRDYNPISSSICHLTNESDGHTTSLYGIGFGPFIITNKHLFRRNNGTLVVQSLHGVFKVKDTTTLQQHLVDGRDMIIIRMPKDFPPFPQKLKFREPQREERICLVTTNFQTKSMSSMVSDTSCTFPSGDGIFWKHWIQTKDGQCGSPLVSTRDGFIVGIHSASNFTNTNNYFTSVPKNFMELLTNQEAQQWVSDWRLNADSVLWGGHKVFMVKPEEPFQPVKEATQL [G202D]	0.0681	0.0596	0.055	–	0.0452	–	0.048	0.0605	–	–	–	0.0673	–	–	0.0612	–	0.0704
MGESLFKGPRDYNPISSSICHLTNESDGHTTSLYGIGFGPFIITNKHLFRRNNGTLVVQSLHGVFKVKDTTTLQQHLVDGRDMIIIRMPKDFPPFPQKLKFREPQREERICLVTTNFQTKSMSSMVSDTSCTFPSGDGIFWKHWIQTKDGQCGSPLVSTRDGFIVGIHSASNFTNTNNYFTSVPKNFMELLTNYEAQQWVSGWRLNADSVLWGGHKVFMVKPEEPFQPVKEATQL [Q194Y]	0.0522	–	–	–	0.0422	0.0619	–	–	0.0911	–	–	–	0.0548	–	0.0906	–	–
MGESLFKGPRDYNPISSSICHLTNESDGHTTSLYGIGFGPFIITNKHLFRRNNGTLVVQSLHGVFKVKDTTTLQQHLVDGRDMIIIRMPKDFPPFPQKLKFREPQREERICLVTTNFQTKSMSSMVSDTSCTFPSGDGIFWKHWIQTKDGQCGSPLVSTRDIFIVGIHSASNFTNTNNYFTSVPKNFMELLTNQEAQQWVSGWRLNADSVLWGGHKVFMVKPEEPFQPVKEATQL [G162I]	0.0401	–	–	–	–	0.0527	–	0.0595	0.0626	0.0391	0.0641	0.0877	0.0635	–	0.062	–	–
MGESLFKGPRDYNPISSSICHLTNESDGHTTSLYGIGFGPFIITNKHLFRRNNGTLVVQSLHGVFKVKDTTTLQQHLVDGRDMIIIRMPKDFPPFPQKLKFREPQREERICLVTTNFQTKSMSSMVSDTSCTFPSGDGIFWKHWIQTKDGQCGSPLVSTRDWFIVGIHSASNFTNTNNYFTSVPKNFMELLTNQEAQQWVSGWRLNADSVLWGGHKVFMVKPEEPFQPVKEATQL [G162W]	0.0662	0.0881	–	0.0469	–	0.0876	0.0602	–	–	0.0543	–	0.0619	0.0596	0.0613	0.114	0.075	–
